# From PubChem BioAssay (Tox21)
# Several values for one entry are separate records, joined by “and”; a condition that tells them apart may be missing. Equal values may be shown once. Inconclusive results, whose numbers are uncertain, are shown with a selection of clear calls. For some of these results: Where the call is inconclusive, the potency comes from a doubtful curve fit. Activity calls are given as the source filed them. Unless noted, calls come from the whole dose curve; as a rule, active = well fitted curve in the direction sought with a large enough effect in the repeat runs; inconclusive = weak or mixed curves; inactive = no such curve, though single readings can be large; an effect the other way counts as inactive or inconclusive.
# What was measured:
# [1] = qHTS assay to identify small molecule antagonists of the estrogen related receptor (ERR) signaling pathway from Tox21 library - cell viability counter screen (AID 1224834); details: ERR reporter cells viability, CellTiter-Fluor, 17.5 h; series mostly up to 92.4 µM; note: potency is the fitted concentration of half-maximal effect; nearly all actives have a fitted effect of over 30% in size
# Summary of the method: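 ERR cells, 2,000/well; 6 h settle at 37 C/5% CO2; pin-tool compound transfer in DMSO; 17.5 h at 37 C; CellTiter-Fluor, 30 min; fluorescence intensity.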
# [2] = qHTS assay to identify small molecule agonists of the constitutive androstane receptor (CAR) signaling pathway - cell viability counter screen (AID 1224836); details: HepG2-CYP2B6-hCAR viability, CellTiter-Fluor, 23 h, PK11195 added to every well; series mostly up to 92.4 µM; note: potency is the fitted concentration of half-maximal effect; nearly all actives have a fitted effect of over 45% in size
# Summary of the method: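 Viability read-out: CellTiter-Fluor fluorescence after 23 h compound exposure at 37 C/5% CO2 in double-stable HepG2-CYP2B6-hCAR cells, with PK11195 present at 0.75 uM final; compounds tested in 15-point titration.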
# [3] = qHTS assay to identify small molecule antagonists of the constitutive androstane receptor (CAR) signaling pathway - cell viability counter screen (AID 1224837); details: HepG2-CYP2B6-hCAR viability, CellTiter-Fluor, 23 h, co-treated with 50 nM CITCO; series mostly up to 92.4 µM; note: potency is the fitted concentration of half-maximal effect; nearly all actives have a fitted effect of over 45% in size
# Summary of the method: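 Viability was measured with CellTiter-Fluor in a HepG2 line carrying stably transfected hCAR and a CYP2B6-2.2kb construct. Cells were exposed for 23 hr at 37 C to 15 compound concentrations with 50 nM CITCO as agonist.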
# [4] = target: Nuclear receptor subfamily 1 group I member 3 (Homo sapiens) (UniProt Q14994); experiment: qHTS assay to identify small molecule antagonists of the constitutive androstane receptor (CAR) signaling pathway (AID 1224838); details: HepG2-CYP2B6-hCAR luciferase, CITCO-stimulated, 24 h; series mostly up to 92.4 µM;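 note: HepG2 cells stably expressing hCAR with CYP2B6 luciferase reporter stimulated by CITCO; potency is the fitted concentration of half-maximal effect; nearly all actives have a fitted effect of over 40% in size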
# UniProt Q14994, sequence (Q14994 whole entry, looked up): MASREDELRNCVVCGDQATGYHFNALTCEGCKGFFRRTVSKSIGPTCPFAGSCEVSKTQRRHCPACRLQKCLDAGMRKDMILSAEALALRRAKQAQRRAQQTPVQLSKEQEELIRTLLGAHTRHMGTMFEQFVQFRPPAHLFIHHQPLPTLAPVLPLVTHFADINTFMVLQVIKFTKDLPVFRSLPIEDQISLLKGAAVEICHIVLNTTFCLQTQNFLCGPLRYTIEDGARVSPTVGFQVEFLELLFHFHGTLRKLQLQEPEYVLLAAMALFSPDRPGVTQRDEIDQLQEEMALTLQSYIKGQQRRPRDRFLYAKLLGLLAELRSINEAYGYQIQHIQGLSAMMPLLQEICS
# Summary of the method: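 Antagonist mode used CITCO at a final 50 nM to activate CAR in human hepatoma HepG2 cells carrying stable hCAR and a 2.2 kb CYP2B6 promoter-luciferase construct. Compounds were tested at 15 concentrations over 24 h, with luminescence as the end point.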
# [5] = target: Thyrotropin receptor (Homo sapiens) (UniProt P16473); experiment: qHTS assay to identify small molecule agonists of the thyroid stimulating hormone receptor (TSHR) signaling pathway (AID 1224843; calls by dose curve; note: nearly all actives have a fitted effect of over 45% in size; note: potency is the fitted concentration of half-maximal effect; for activation: % is set by controls: 0 for no effect and ±100 for the full control effect); details: TSHR-HEK293 cells, cAMP HTRF, agonist mode, 30 min; activation: at 92.4 µM (top of the series) unless noted
# UniProt P16473, sequence (P16473 whole entry, looked up): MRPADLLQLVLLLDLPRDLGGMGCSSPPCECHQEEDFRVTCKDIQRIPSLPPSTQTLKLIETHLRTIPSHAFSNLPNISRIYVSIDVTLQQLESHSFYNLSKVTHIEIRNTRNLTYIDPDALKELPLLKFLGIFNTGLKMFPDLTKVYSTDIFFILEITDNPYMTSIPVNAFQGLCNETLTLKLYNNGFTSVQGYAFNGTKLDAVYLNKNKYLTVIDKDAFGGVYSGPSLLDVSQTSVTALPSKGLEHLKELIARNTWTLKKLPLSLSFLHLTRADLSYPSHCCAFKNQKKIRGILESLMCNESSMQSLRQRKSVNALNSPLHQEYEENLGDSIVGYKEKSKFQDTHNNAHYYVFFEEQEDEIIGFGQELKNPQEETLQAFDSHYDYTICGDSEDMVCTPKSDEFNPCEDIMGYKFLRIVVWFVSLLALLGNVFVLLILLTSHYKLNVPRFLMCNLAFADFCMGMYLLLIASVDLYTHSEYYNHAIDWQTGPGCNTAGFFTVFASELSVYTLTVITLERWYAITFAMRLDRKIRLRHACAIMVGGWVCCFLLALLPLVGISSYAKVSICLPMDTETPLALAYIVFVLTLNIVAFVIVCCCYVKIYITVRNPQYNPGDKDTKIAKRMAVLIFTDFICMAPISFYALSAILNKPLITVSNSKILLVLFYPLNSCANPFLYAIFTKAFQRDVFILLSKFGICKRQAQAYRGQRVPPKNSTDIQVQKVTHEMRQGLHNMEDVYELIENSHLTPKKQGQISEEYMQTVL
# Summary of the method: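 A cell-based cAMP HTRF format was run in TSHR-transfected HEK293 cells, 800 per well. Treatment: 30 min, room temperature. Detection: 1 h with labelled cAMP and anti-cAMP cryptate. Concentration-response over 15 points, three replicates.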
# [6] = qHTS assay to identify small molecule agonists of the hypoxia (HIF-1) signaling pathway - cell viability counter screen (AID 1224844; calls by dose curve; note: potency is the fitted concentration of half-maximal effect; nearly all actives have a fitted effect of over 50% in size); details: HRE-bla ME-180 viability, CellTiter-Glo luminescence, 17 h; series mostly up to 76.8 µM
# Summary of the method: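 Cytotoxicity was measured in parallel with the HRE-driven beta-lactamase readout: after 17 hrs of compound exposure at 37C, HRE-bla ME-180 cells received CellTiter-Glo and luminescence was recorded 30 min later.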
# [7] = qHTS assay to identify small molecule antagonists of the estrogen related receptor signaling pathway with the pleiotropic PPARgamma coactivator (PGC) from Tox21 10K library - cell viability counter screen (AID 1224840; active = well fitted cell-killing curve with a large enough effect in the repeat runs, not every such curve was filed as active; inconclusive = weak or mixed curves, or effect the other way; inactive = no such curve, though single readings can be large or run the other way; note: potency is the fitted concentration of half-maximal effect; nearly all actives have a fitted effect of over 40% in size); details: PGC/ERR reporter cells viability, CellTiter-Fluor, 17.5 h; series mostly up to 92.4 µM
# Summary of the method: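 Multiplexed viability counter screen in the PGC/ERR cell line: cells treated with DMSO-dissolved compounds for 17.5 hours at 37 C, then viability measured as CellTiter-Fluor fluorescence.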
# [8] = target: Luciferin 4-monooxygenase (Photinus pyralis) (UniProt P08659); experiment: qHTS assay to identify small molecule inhibitors of firefly luciferase (AID 1224835); note: % is set by controls: 0 for no effect and ±100 for the full control effect; nearly all actives have a fitted effect of over 25% in size; details: purified P. pyralis luciferase, luminescence inhibition; series mostly up to 115 µM
# UniProt P08659, sequence (P08659 whole entry, looked up): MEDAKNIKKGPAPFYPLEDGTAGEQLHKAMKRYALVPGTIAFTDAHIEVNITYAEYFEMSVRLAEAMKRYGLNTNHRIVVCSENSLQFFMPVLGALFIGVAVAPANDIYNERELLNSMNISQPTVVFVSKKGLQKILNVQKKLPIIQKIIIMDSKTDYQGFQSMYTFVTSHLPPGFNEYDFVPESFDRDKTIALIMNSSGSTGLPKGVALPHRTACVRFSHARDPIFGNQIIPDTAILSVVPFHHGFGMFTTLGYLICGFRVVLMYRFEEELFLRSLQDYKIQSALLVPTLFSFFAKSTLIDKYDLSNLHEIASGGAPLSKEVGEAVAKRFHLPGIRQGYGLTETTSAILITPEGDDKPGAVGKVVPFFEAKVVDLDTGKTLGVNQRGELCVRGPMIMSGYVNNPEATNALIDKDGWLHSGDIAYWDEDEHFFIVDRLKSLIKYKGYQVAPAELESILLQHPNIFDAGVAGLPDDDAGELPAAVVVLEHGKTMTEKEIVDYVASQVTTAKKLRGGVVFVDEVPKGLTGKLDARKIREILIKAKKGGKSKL
# Summary of the method: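 Inhibition of purified Photinus luciferase is measured by luminescence. Substrate levels (D-luciferin, ATP) sit at their KM values. Each compound is tested in a concentration series.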
# Tags give direction and shape of the fitted curve or compound fluorescence and quenching.
smiles,measurement,setting,value
O=C1c2ccccc2C(=O)N1SC1CCCCC1,Potency,[1],"inconclusive: 68.5 µM [cytotoxic, single point]"
same,Potency,[2],inconclusive: 61.1 µM [cytotoxic]
same,Potency,[3],"inconclusive: 68.5 µM [cytotoxic, single point] and inconclusive: 54.5 µM [cytotoxic, partial curve, poor fit]"
same,Potency,[4],"inconclusive: 43.3 µM [inhibitor, partial curve]"
same,Potency,[5],"inconclusive: 61.1 µM [inhibitor, partial curve]"
same,Potency,[6],active: 54.9 µM and inconclusive: 54.9 µM [cytotoxic]
Cc1c(C)c2c(c(C)c1O)CCC(C)(COc1ccc(CC3SC(=O)NC3=O)cc1)O2 (stereo unspecified),Potency,[1],inconclusive: 54.5 µM [cytotoxic]
same,Potency,[7],"inconclusive: 68.6 µM [cytotoxic, partial curve, poor fit]"
same,Potency,[5],inconclusive: 61.1 µM [activator]
O=C1NC(=O)c2cc([N+](=O)[O-])ccc21,Potency,[8],inactive
BrC1CCC(Br)C(Br)CCC(Br)C(Br)CCC1Br (stereo unspecified),Potency,[1],"inconclusive: 58 µM [cytotoxic, single point]"
same,Potency,[3],"inconclusive: 68.3 µM [cytotoxic, partial curve, poor fit]"
same,Potency,[4],active: 21.6 µM and active: 25.9 µM
same,Potency,[7],"inconclusive: 48.4 µM [cytotoxic, partial curve] and inconclusive: 58 µM [cytotoxic, single point]"
same,Potency,[5],"inconclusive: 9.65 µM [inhibitor, partial curve]"
same,activation,[5],inconclusive: -18.9%
